# Among all 7,900 compounds or so, about 400 (5.1%) showed an effect of 50% or more. Some of the results follow.
# Target: Parkinson's disease protein 7 (PARK7/DJ1) (human, UniProt Q99497)
# Assay: primary screen, percent inhibition; read as competition with a fluorescent probe by fluorescence polarization; higher = more effect of the substance
# Conditions: 100 µM
# Summary of the method: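 Covalent fragments at 100 μM final were incubated 2 h with 0.2 μM PARK7, then 20 nM probe JYQ-107 added for a further 2 h. Fluorescence polarization read at 480/520 nm; relative FP loss versus reference controls gave remaining enzyme activity.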
# Parkinson's disease protein 7 (PARK7/DJ1), sequence (Q99497 whole entry, looked up): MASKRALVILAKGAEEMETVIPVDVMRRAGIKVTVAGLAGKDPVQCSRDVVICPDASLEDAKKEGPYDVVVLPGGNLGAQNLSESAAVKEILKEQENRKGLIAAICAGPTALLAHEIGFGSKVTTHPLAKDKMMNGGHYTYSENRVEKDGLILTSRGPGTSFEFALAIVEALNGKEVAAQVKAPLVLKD
row,SMILES,Inhibition %
1,CS(=O)(=O)c1ccc(C(=O)CCl)cc1,87.3%
2,N#CC(=Cc1ccco1)C(=O)NCc1ccccc1,13%
3,CCC1CC(CC(=O)Nc2cn[nH]c2C#N)CCO1 (centres unmarked),8.24%
4,CC1c2cccn2CCN1S(=O)(=O)C=Cc1ccccc1 (centres unmarked),21.4%
5,C=CC(=O)Nc1cc(OC)c(OC)c(OC)c1,6.39%
6,CC(C)N1CCC(NC(=O)CCl)CC1.Cl,2.57%
7,CC1CC(C)CN(C(=O)C=Cc2cscn2)C1 (centres unmarked),7.7%
8,c1ccc(OCC2CO2)cc1 (centres unmarked),9.6%
9,CCN(CC)C(=O)Oc1ccc(NC(C)=O)cc1,7.25%
10,CCCc1nc(C#N)c(N2CCC(C(N)=O)CC2)o1,7.7%
11,CN(C(=O)Cn1cnc(C#N)n1)C1=CCCC1,9.73%
12,Cc1cc(C)n(S(=O)(=O)c2ccc(Cl)c(Cl)c2)n1,7.19%
13,O=C(CCl)Nc1ccc(-c2ccccc2)cc1,4.3%
14,COC(=O)c1cc(Cl)cc(Cl)c1NC(=O)CCl,1.69%
15,Cl.NCCNS(=O)(=O)C=Cc1ccccc1Cl,15.1%
16,O=C(CCCl)Nc1ccc2[nH]c(=O)[nH]c2c1,12.3%
17,C=CC(=O)N1CCC(Cc2ccccc2)C1 (centres unmarked),7.4%
18,CN1CCN(C(=CC#N)c2ccc(F)cc2)CC1,15%
19,C=CC(=O)Nc1ccc(S(=O)(=O)N2CCCC2)cc1,8.4%
20,C=CC(=O)NC1CN(C(C)=O)C1,4.46%
21,C=CC(=O)N1CCC(c2ccnn2C)CC1,4.28%
22,O=C(CCN1C(=O)CCC1=O)Nc1ccc(Cl)cn1,-0.378%
23,C=CC(=O)N1CC(c2cc(CO)on2)C1,7.24%
24,CC1(c2ccccc2)NC(=O)N(NC(=O)CCl)C1=O (centres unmarked),16.9%
25,Cc1c(C)c2ccc(OCC3CO3)c(C)c2oc1=O (centres unmarked),10.5%

row,SMILES,Inhibition %
1,C=CC(=O)NCCC1Cc2ccccc2C1,7.33%
2,Cn1cc(C=C(C#N)c2nc3ccccc3s2)cn1,5.09%
3,O=S(=O)(F)c1ccc(S(=O)(=O)N2CC3CC(O)C3C2)cc1 (centres unmarked),20.2%
4,CN(Cc1ccccc1Br)C(=O)CCl,93.9%
5,N#Cc1nc(C2CC2)n[nH]1,2.55%
6,N#CC(=Cc1csc(C2CC2)n1)c1ccccn1,6.07%
7,O=C1SCCN1CC(=O)N1CCCc2cc(F)c(F)cc21,4.11%
8,O=C(CCl)Nc1ccc(F)c(F)c1,25.9%
9,CC(=O)Nc1ccc(OC(=O)N2CCCC2)cc1,8.48%
10,O=C(CCCl)Nc1ccccc1C(F)(F)F,16.7%
11,CC(C)(C)OC(=O)N1CCOc2cccc(B3OC(C)(C)C(C)(C)O3)c2C1,3.79%
12,C=CC(=O)N(C)CC(=O)N1CCCC1,5.8%
13,N#Cc1cnc(Oc2ccc(F)cc2)cn1,6.61%
14,Cc1csc(N2CCN(C3CCOC3=O)CC2C)n1 (centres unmarked),4.89%
15,Cc1cc(NC(=O)CN2CCSC2=O)n(C)n1,9.76%
16,CN(CCN1C(=O)CCC1=O)Cc1nc2c(s1)CCCC2,9.47%
17,CC1(C)OB(c2ccnn2C2CCOCC2)OC1(C)C,15.5%
18,C=CC(=O)N1CCC(c2nc(C)no2)C1 (centres unmarked),7.51%
19,C=CC(=O)N1CCN2C(=O)N(C)C(=O)C2C1 (centres unmarked),5.02%
20,C=CC(=O)N1CCN(c2ncccc2F)CC1,7.9%
21,CN(CC(=O)Nc1cccc(Cl)c1)c1ccc(C#N)nc1,6.52%
22,C=CC(=O)NC(c1ccco1)C(C)(C)C (centres unmarked),7.05%
23,C=CC(=O)N1CCC(c2ccc(C)cc2)C1 (centres unmarked),-4.08%
24,Cc1sc(S(=O)(=O)F)cc1N,21.4%
25,CC1CCN(CC(O)CN2C(=O)CCC2=O)CC1 (centres unmarked),11.1%

row,SMILES,Inhibition %
1,Cc1ccc(Nc2nccnc2C#N)cc1,5.64%
2,ClCCC1CCCO1 (centres unmarked),9.25%
3,CC(C)c1nc2c(n1C)CCN(c1cccnc1C#N)C2,87%
4,C=CC(=O)NC1CCCNC1=O (centres unmarked),12.4%
5,CC(C)(C)c1nc(C#N)co1,6.2%
6,O=C(CCl)Nc1cc2c(cc1[N+](=O)[O-])OCCCO2,3.15%
7,CC1CC(N2CCCC(Cn3cncn3)C2)C(=O)O1 (centres unmarked),12.1%
8,C=CC(=O)N1CCO[C@@H]2COCC[C@@H]21 (racemic),7.52%
9,O=S(=O)(F)c1ccc(Br)cc1,13.2%
10,CCc1c(OC(=O)NC)noc1C,84.6%
11,C=CC(=O)N1CCN(Cc2cccc(F)c2)CC1,5.18%
12,CC1CCCC(NC(=O)NC(=O)CCl)C1C (centres unmarked),0.611%
13,N#CC(=Cc1cccc(Cl)c1Cl)C(N)=O,8.01%
14,CC1(C(=O)Nc2cccc(S(=O)(=O)F)c2)CCCC1,97.7%
15,N#Cc1cc(N2C[C@@H](C(F)(F)F)[C@H](C(N)=O)C2)ccn1,9.08%
16,CCOc1ccc(C)cc1S(=O)(=O)n1ccnc1,15.5%
17,ClCCc1cncs1,0.423%
18,Cc1c(NC(=O)c2cccnc2S)cnn1CCC(C)C,3.61%
19,CCn1c(N)c(C(=O)CCl)c(=O)[nH]c1=O,4.93%
20,C=CC(=O)N1CCCC(OCC(F)(F)F)C1 (centres unmarked),-2.11%
21,Cc1cnc(NC(=O)c2cccnc2S)[nH]1,3.06%
22,N#CC(=Cc1cccnc1)c1nc2ccccc2[nH]1,21.9%
23,C#CC(=O)N1CCC(OC)C1 (centres unmarked),-2.28%
24,O=S(=O)(C=Cc1ccccc1)Nc1ccc(F)cn1,6.27%
25,NC(=O)c1ccccc1OS(=O)(=O)c1ccccc1,5.17%

row,SMILES,Inhibition %
1,O=C(CCl)NC(Cc1c[nH]c2ccccc12)C(=O)O (centres unmarked),12.1%
2,C=CC(=O)NCc1cc2c(cc1OC)CC(C)O2 (centres unmarked),3.88%
3,O=C1NC(c2ccncc2)C12CCC2 (centres unmarked),7.13%
4,C=CC(=O)Nc1ccnc(OC)c1,10%
5,CCN(C(=O)CCl)c1ccccc1,44.6%
6,C=CC(=O)NC(c1ccccc1)c1nc(C)no1 (centres unmarked),10.1%
7,C=CC(=O)N1CC(OC)Cc2ccccc21 (centres unmarked),13.5%
8,C=CC(=O)NC1CCCc2occc21 (centres unmarked),3.08%
9,C#CC(=O)N1CCC(O)C1 (centres unmarked),6.99%
10,CCOc1ccc(-c2n[nH]c(=O)o2)cc1,10.3%
11,CC1(C)OB(c2cccc(OCCN3CCCCC3)c2)OC1(C)C,-0.0143%
12,C=CC(=O)NCCc1ccc(F)cn1,-26.8%
13,C=CC(=O)N1CCCC1c1cc(C)no1 (centres unmarked),10.8%
14,Cc1nn(C)c(Cl)c1C=CC(=O)N1CCCC(C(C)N)C1.Cl (centres unmarked),10.2%
15,CC1(C)OB(c2cc(Cl)ccc2C2CC2)OC1(C)C,4.29%
16,C=CC(=O)N1CCOC(C2CCCO2)C1 (centres unmarked),7.18%
17,C=CC(=O)N[C@@H]1C[C@H]1[C@@H]1C[C@H]1C (mixture of isomers),7.3%
18,C=CC(=O)N1CC(F)(c2ccccc2)C1,10.9%
19,COC(=O)C1CCN(C(=O)CCl)CC1,11.9%
20,C=CC(=O)N[C@H]1CCCC[C@H]1n1cc(C(C)(C)O)nn1,5.13%
21,C=CC(=O)N1CCOCC2(CCOCC2)C1,8.17%
22,O=c1cn[nH]c(S)n1,74.8%
23,C=CC(=O)NCC1CC(C)=NO1 (centres unmarked),-1.19%
24,C=CC(=O)NCC1SCCc2ccccc21 (centres unmarked),4.59%
25,FC(F)(F)c1ccc(S)nc1,26.5%

row,SMILES,Inhibition %
1,N#Cc1ccnc(NC2CCCCCC2)n1,4.9%
2,N#CC(=Cc1c[nH]c2ccccc12)C(N)=S,12%
3,CCn1cc(B2OC(C)(C)C(C)(C)O2)cn1,14.9%
4,Cc1cccc2cc(B(O)O)cnc12,13.1%
5,Cc1cnc(NC(=O)CCN2C(=O)CCC2=O)s1,8.1%
6,C=CC(=O)N(C1CC1)C1COC1,25%
7,C=CC(=O)NC1CC(C)(OC)C1(C)C (centres unmarked),8.48%
8,O=C(CCl)NCCOc1ccc(Cl)cc1,20.3%
9,C=CC(=O)NCc1ccccc1-c1cnn(C)c1,1.76%
10,CCOc1ccc(S(=O)(=O)n2cc(C)nc2CC)cc1C,9.41%
11,CCN(C(=O)CCl)c1nc2ccccc2s1,24.6%
12,O=C(C=Cc1c(Cl)nc2ccccn12)N1CCCCC1,4.67%
13,Cn1cc(CNC(=O)c2cccnc2S)c(C(F)(F)F)n1,9.8%
14,COc1cc(OC)c(NC(=O)CCl)cc1Cl,3.54%
15,CC(C)NC(=O)C(C#N)=Cc1ccc(Cl)cc1,6.67%
16,N#Cc1cccc(S(=O)(=O)F)c1,97.3%
17,O=C1CCC(=O)N1CCC(=O)N1CCCC1C1CCCC1 (centres unmarked),5.37%
18,Cn1cc(B2OC(C)(C)C(C)(C)O2)cn1,4.89%
19,Cc1ccc(OCc2ccccc2Cl)c(B(O)O)c1,-0.0143%
20,C=CC(=O)N1CC2COCC2(C)C1 (centres unmarked),9.87%
21,CC(NS(=O)(=O)C=Cc1ccccc1)C1CCCO1 (centres unmarked),7.19%
22,Cc1c(Cl)ccc(S(=O)(=O)n2ccnc2)c1Cl,11.8%
23,C=CC(=O)NCC1(c2ncccc2C)CC1,1.59%
24,CN(Cc1ccccc1)C(=O)C=CC(=O)O,23.5%
25,C=CC(=O)N1Cc2ccccc2OC(C)C1 (centres unmarked),11.8%

# — publication PMC9574860, “Chemical Toolkit for PARK7: Potent, Selective, and High-Throughput” (Journal of Medicinal Chemistry, 2022)
